Structures can show the parent of a compound that is named as a salt. Where two headings read alike, the source gives them in different places.
Test system: influenza virus A/PR-8
Settings: 24 h and 3 h before infection and 5 times every other day from second day after, 21 days after challenge, untreated control 10%

SMILES | Survival rate (40 mg/kg i.p.) [%] | Survival rate (20 mg/kg i.p.) [%]
CC(C)=CCCC(C)=CCCC(C)=CCCC(C)=CCCC(C)=CCCC(C)=CCCC(C)=CCCC(C)=CCCC(C)=CCCC(C)=CCN [Decaprenylamine hydrochloride] | 70 | –
CC(C)=CCCC(C)=CCCC(C)=CCCC(C)=CCCC(C)=CCCC(C)=CCCC(C)=CCCC(C)=CCCC(C)=CCN [Solanesylamine hydrochloride, solanesylamine hydrochloride] | – | 60
CC(C)=CCCC(C)=CCCC(C)=CCCC(C)=CCCC(C)=CCCC(C)=CCCC(C)=CCCC(C)=CCCC(C)=CCCC(C)=CCCC(C)=CCN [Undecaprenylamine hydrochloride] | 30 | –

From patent publication US4265910A (priority 1979, dated 1981)
